A collection of fitness landscapes (doi:10.1016/j.celrep.2020.107928)
Whole data set: some 81,000 sequences, median “one-hybrid fitness for binding parS DNA” near -0.17, cut for the highest 2% near 0.51. This is one part of the list.

B1: Caulobacter ParB omega fusion; a variant is named by its letters at X, in order, B8GW30 (parent)
chain: MESVVVGEPGMSEGRRGLGRGLSALLGEVDAAPAQAPGEQLGGSREAPIEILQRNPDQPRRTFREEDLEDLSNSIREKGVLQPILVRPSPDTAGEYQIVAGERAWRAAQRAGLKTVPIMVRELDDLAVLEIGIIENVQRADLNVLEEALSYKVLMEKFERTQENIAQTIGKSXSHVANXMRLLXLPDEVQSYLVSGELTAXHARAIAAAADPVALAKQIIEGGLSVRETEALARKAPNLSAGKSKGGRPPRVKDTDTQALESDLSSVLGLDVSIDHRGSTGTLTITYATLEQLDDLCNRLTRGI

Variants of: B1
Test: one-hybrid fitness for binding parS DNA (scaled: cognate 1, non-cognate 0); higher = stronger binding
Conditions: with parS DNA site
How it was run: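 The reporter was HIS3, with the binding site 19 bp from the promoter, in E. coli USO used for bacterial one-hybrid selection of Caulobacter ParB libraries with four specificity codons randomised. Growth was on M9 lacking histidine, with 0.1 mM IPTG and 5 mM 3-AT, for 48 hours at 37°C. Illumina sequencing covered plasmids before and after selection; three replicate libraries were pooled and variants with under 10 reads dropped. A fitness score is the log change in variant-to-wild-type read ratio, rescaled to the cognate and non-cognate references.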

Row | Variant | one-hybrid fitness for binding parS DNA
1 | ASAE | ≤ 0.2
2 | CWVT | ≤ 0.2
3 | ARGQ | ≤ 0.2
4 | VFTK | ≤ 0.2
5 | MNYR | ≤ 0.2
6 | FAAS | ≤ 0.2
7 | IHCL | ≤ 0.2
8 | ADVR | ≤ 0.2
9 | PNGC | ≤ 0.2
10 | NHAC | ≤ 0.2
11 | VKGT | ≤ 0.2
12 | IFPY | ≤ 0.2
13 | PLTF | ≤ 0.2
14 | GYQT | ≤ 0.2
15 | MYPT | ≤ 0.2
16 | HIYT | ≤ 0.2
17 | EPRF | ≤ 0.2
18 | YTQG | ≤ 0.2
19 | RDCW | ≤ 0.2
20 | ALDN | ≤ 0.2
21 | TAAP | ≤ 0.2
22 | PYAR | ≤ 0.2
23 | LDHY | ≤ 0.2
24 | ERPW | ≤ 0.2

Row | Variant | one-hybrid fitness for binding parS DNA
25 | FNCC | ≤ 0.2
26 | QEAE | ≤ 0.2
27 | TLPG | ≤ 0.2
28 | VRVT | ≤ 0.2
29 | FDDS | ≤ 0.2
30 | DANG | ≤ 0.2
31 | FHIF | ≤ 0.2
32 | MYWS | ≤ 0.2
33 | GPWC | ≤ 0.2
34 | HMDM | ≤ 0.2
35 | ESMT | ≤ 0.2
36 | DFNG | ≤ 0.2
37 | EMGS | ≤ 0.2
38 | VFLS | ≤ 0.2
39 | VTYR | ≤ 0.2
40 | ASAM | ≤ 0.2
41 | HHSM | ≤ 0.2
42 | RVYA | 0.64
43 | MHNT | ≤ 0.2
44 | RAAR | ≤ 0.2
45 | EPFW | ≤ 0.2
46 | KLMG | ≤ 0.2
47 | KAHV | ≤ 0.2
48 | TMTT | ≤ 0.2

Row | Variant | one-hybrid fitness for binding parS DNA
49 | WVYT | ≤ 0.2
50 | PCKR | ≤ 0.2
51 | LFTR | ≤ 0.2
52 | QPNG | ≤ 0.2
53 | VVTN | ≤ 0.2
54 | CTDW | ≤ 0.2
55 | GERC | ≤ 0.2
56 | VCTK | ≤ 0.2
57 | RMIH | 0.223
58 | QAPA | ≤ 0.2
59 | WNKP | 0.274
60 | PCRC | ≤ 0.2
61 | CMNM | ≤ 0.2
62 | QANY | ≤ 0.2
63 | PKPV | ≤ 0.2
64 | RMSC | 0.956
65 | FWMC | ≤ 0.2
66 | YDSG | ≤ 0.2
67 | WRDR | ≤ 0.2
68 | TWNR | ≤ 0.2
69 | FILT | ≤ 0.2
70 | ETYS | ≤ 0.2
71 | MTPE | ≤ 0.2
72 | CPPS | ≤ 0.2

Row | Variant | one-hybrid fitness for binding parS DNA
73 | DAHV | ≤ 0.2
74 | ARSE | ≤ 0.2
75 | NWRD | ≤ 0.2
76 | AMTI | ≤ 0.2
77 | FPFL | ≤ 0.2
78 | ITHR | ≤ 0.2
79 | CLVH | ≤ 0.2
80 | CRYS | ≤ 0.2
81 | HQFL | ≤ 0.2
82 | IYRG | ≤ 0.2
83 | YSNL | ≤ 0.2
84 | SHLR | ≤ 0.2
85 | YILL | ≤ 0.2
86 | PKGA | ≤ 0.2
87 | RNWC | 0.569
88 | TLHR | ≤ 0.2
89 | AWLS | ≤ 0.2
90 | KTGT | ≤ 0.2
91 | QYGS | ≤ 0.2
92 | ISMK | ≤ 0.2
93 | PADG | ≤ 0.2
94 | PNDE | ≤ 0.2
95 | QAPM | ≤ 0.2
96 | KTKL | ≤ 0.2

Row | Variant | one-hybrid fitness for binding parS DNA
97 | QTDL | ≤ 0.2
98 | DDIR | ≤ 0.2
99 | LFYI | ≤ 0.2
100 | NGYS | ≤ 0.2
101 | TPSA | ≤ 0.2
102 | HKVM | ≤ 0.2
103 | YPRT | ≤ 0.2
104 | NRKA | ≤ 0.2
105 | PDIR | ≤ 0.2
106 | QCHG | ≤ 0.2
107 | AKMS | ≤ 0.2
108 | GSPF | ≤ 0.2
109 | VLLS | ≤ 0.2
110 | QYMC | ≤ 0.2
111 | TYCY | ≤ 0.2
112 | STKN | ≤ 0.2
113 | QNAL | ≤ 0.2
114 | IDYA | ≤ 0.2
115 | HRPP | ≤ 0.2
116 | YFMR | ≤ 0.2
117 | QHKQ | ≤ 0.2
118 | KWGS | ≤ 0.2
119 | NVRS | ≤ 0.2
120 | QINC | ≤ 0.2

Row | Variant | one-hybrid fitness for binding parS DNA
121 | LRHI | ≤ 0.2
122 | PLIL | ≤ 0.2
123 | TRRQ | ≤ 0.2
124 | VHAC | ≤ 0.2
125 | ELPI | ≤ 0.2
126 | CLMI | ≤ 0.2
127 | MVNK | ≤ 0.2
128 | QSYK | ≤ 0.2
129 | QNEV | ≤ 0.2
130 | PLND | ≤ 0.2
131 | CGLF | ≤ 0.2
132 | WARG | ≤ 0.2
133 | DNHS | ≤ 0.2
134 | HAAA | ≤ 0.2
135 | RQNR | ≤ 0.2
136 | CYES | ≤ 0.2
137 | HNCS | ≤ 0.2
138 | NTCS | ≤ 0.2
139 | LWHG | ≤ 0.2
140 | MRTP | ≤ 0.2
141 | FSKC | ≤ 0.2
142 | FNIT | ≤ 0.2
143 | ASRC | ≤ 0.2
144 | RFYT | 0.801

Row | Variant | one-hybrid fitness for binding parS DNA
145 | PDGY | ≤ 0.2
146 | TLKI | ≤ 0.2
147 | QQTD | ≤ 0.2
148 | CGQR | ≤ 0.2
149 | SFLC | ≤ 0.2
150 | RHYL | ≤ 0.2
151 | LSHW | ≤ 0.2
152 | PSQN | ≤ 0.2
153 | CGIR | ≤ 0.2
154 | GSNV | ≤ 0.2
155 | EGHS | ≤ 0.2
156 | LSVQ | ≤ 0.2
157 | NVRN | ≤ 0.2
158 | NSRE | ≤ 0.2
159 | GGTV | ≤ 0.2
160 | ATQC | ≤ 0.2
161 | TWQR | ≤ 0.2
162 | IFPR | ≤ 0.2
163 | HRIR | ≤ 0.2
164 | TMIN | ≤ 0.2
165 | FKSC | ≤ 0.2
166 | RDNC | ≤ 0.2
167 | GNNC | ≤ 0.2
168 | VMNT | ≤ 0.2

Row | Variant | one-hybrid fitness for binding parS DNA
169 | AERM | ≤ 0.2
170 | VYNS | ≤ 0.2
171 | ETDS | ≤ 0.2
172 | LSME | ≤ 0.2
173 | AIKR | ≤ 0.2
174 | HHVT | ≤ 0.2
175 | IYAV | ≤ 0.2
176 | YFTG | ≤ 0.2
177 | NCIG | ≤ 0.2
178 | WSMS | ≤ 0.2
179 | SVRW | ≤ 0.2
180 | LPNR | ≤ 0.2
181 | PMRN | ≤ 0.2
182 | RFYC | 0.867
183 | QDMY | ≤ 0.2
184 | PNVW | ≤ 0.2
185 | AMDV | ≤ 0.2
186 | VHTA | ≤ 0.2
187 | KPWS | ≤ 0.2
188 | HGPV | ≤ 0.2
189 | VTFI | ≤ 0.2
190 | DSLA | ≤ 0.2
191 | AFPY | ≤ 0.2
192 | GYLG | ≤ 0.2

Row | Variant | one-hybrid fitness for binding parS DNA
193 | ECQL | ≤ 0.2
194 | IRYE | ≤ 0.2
195 | RPQM | ≤ 0.2
196 | IVTP | ≤ 0.2
197 | RLLN | 0.44
198 | VNVR | ≤ 0.2
199 | LAHT | ≤ 0.2
200 | NPVR | ≤ 0.2
201 | RHAM | 0.28
202 | NMCG | ≤ 0.2
203 | SACF | ≤ 0.2
204 | LWDS | ≤ 0.2
205 | CGCR | ≤ 0.2
206 | TCGG | ≤ 0.2
207 | QFPP | ≤ 0.2
208 | IVFV | ≤ 0.2
209 | SDDG | ≤ 0.2
210 | QIKR | ≤ 0.2
211 | RDWI | ≤ 0.2
212 | TWRK | ≤ 0.2
213 | EHGR | ≤ 0.2
214 | DIDF | ≤ 0.2
215 | SNLQ | ≤ 0.2
216 | PGIG | ≤ 0.2

Row | Variant | one-hybrid fitness for binding parS DNA
217 | LRYS | ≤ 0.2
218 | RYCL | ≤ 0.2
219 | QQPW | ≤ 0.2
220 | HAKK | ≤ 0.2
221 | TQSS | ≤ 0.2
222 | NYYG | ≤ 0.2
223 | SPNW | ≤ 0.2
224 | DQGR | ≤ 0.2
225 | HDWG | ≤ 0.2
226 | QKWF | ≤ 0.2
227 | DAAM | ≤ 0.2
228 | YIWS | ≤ 0.2
229 | CVRS | ≤ 0.2
230 | EVAG | ≤ 0.2
231 | AQCT | ≤ 0.2
232 | WAGR | ≤ 0.2
233 | QCTD | ≤ 0.2
234 | ANAC | ≤ 0.2
235 | QHVI | ≤ 0.2
236 | ANAL | ≤ 0.2
237 | REHE | ≤ 0.2
238 | TDKY | ≤ 0.2
239 | GSPT | ≤ 0.2
240 | LDHK | ≤ 0.2

Row | Variant | one-hybrid fitness for binding parS DNA
241 | HYLV | ≤ 0.2
242 | HENL | ≤ 0.2
243 | GGGN | ≤ 0.2
244 | KLSY | ≤ 0.2
245 | VNAF | ≤ 0.2
246 | RWLK | ≤ 0.2
247 | KMYT | ≤ 0.2
248 | MAIH | ≤ 0.2
249 | RRKC | 0.649
250 | RYLH | ≤ 0.2
251 | QTTR | ≤ 0.2
252 | HVTN | ≤ 0.2
253 | HDGT | ≤ 0.2
254 | RKMC | 0.897
255 | PAIG | ≤ 0.2
256 | IPSM | ≤ 0.2
257 | NYAS | ≤ 0.2
258 | LWGM | 0.256
259 | RTTS | 0.943
260 | QRAS | ≤ 0.2
261 | YPVG | ≤ 0.2
262 | DLTC | ≤ 0.2
263 | PFLT | ≤ 0.2
264 | TPNG | ≤ 0.2

Row | Variant | one-hybrid fitness for binding parS DNA
265 | RQKW | 0.29
266 | QRFW | ≤ 0.2
267 | QAQG | ≤ 0.2
268 | SSGA | ≤ 0.2
269 | PGVT | ≤ 0.2
270 | QCYF | ≤ 0.2
271 | YLPS | ≤ 0.2
272 | TRKE | ≤ 0.2
273 | AIFL | ≤ 0.2
274 | DMWV | ≤ 0.2
275 | YRRD | ≤ 0.2
276 | EIVT | ≤ 0.2
277 | TQTG | ≤ 0.2
278 | FAAR | ≤ 0.2
279 | KQSN | ≤ 0.2
280 | HAGV | ≤ 0.2
281 | YNER | ≤ 0.2
282 | SKDV | ≤ 0.2
283 | WTHL | ≤ 0.2
284 | PPIA | ≤ 0.2
285 | HCTL | ≤ 0.2
286 | PQKT | ≤ 0.2
287 | THYS | ≤ 0.2
288 | DINR | ≤ 0.2

Row | Variant | one-hybrid fitness for binding parS DNA
289 | MCTK | ≤ 0.2
290 | TRNI | ≤ 0.2
291 | PLAS | ≤ 0.2
292 | VPYG | ≤ 0.2
293 | GMCW | ≤ 0.2
294 | DLVR | ≤ 0.2
295 | EDMG | ≤ 0.2
296 | RTSC | 0.969
297 | LVTW | ≤ 0.2
298 | PPTY | ≤ 0.2
299 | YRNI | ≤ 0.2
300 | QILW | ≤ 0.2
301 | PGFF | ≤ 0.2
302 | PILS | ≤ 0.2
303 | LPQL | ≤ 0.2
304 | GNAR | ≤ 0.2
305 | RSLL | ≤ 0.2
306 | IKDN | ≤ 0.2
